Reference: US20210024639A1 (AGOMAB THERAPEUTICS, published 2021)

Legend:
[1] = molecular target: T1, native human MET on living human cells (human, UniProt P08581); experiment: cell-based or functional assay
[2] = molecular target: T1, native human MET on living human cells; experiment: cell-based or functional assay; remark: listed apart in the source
T1 sequence (P08581 25-1390): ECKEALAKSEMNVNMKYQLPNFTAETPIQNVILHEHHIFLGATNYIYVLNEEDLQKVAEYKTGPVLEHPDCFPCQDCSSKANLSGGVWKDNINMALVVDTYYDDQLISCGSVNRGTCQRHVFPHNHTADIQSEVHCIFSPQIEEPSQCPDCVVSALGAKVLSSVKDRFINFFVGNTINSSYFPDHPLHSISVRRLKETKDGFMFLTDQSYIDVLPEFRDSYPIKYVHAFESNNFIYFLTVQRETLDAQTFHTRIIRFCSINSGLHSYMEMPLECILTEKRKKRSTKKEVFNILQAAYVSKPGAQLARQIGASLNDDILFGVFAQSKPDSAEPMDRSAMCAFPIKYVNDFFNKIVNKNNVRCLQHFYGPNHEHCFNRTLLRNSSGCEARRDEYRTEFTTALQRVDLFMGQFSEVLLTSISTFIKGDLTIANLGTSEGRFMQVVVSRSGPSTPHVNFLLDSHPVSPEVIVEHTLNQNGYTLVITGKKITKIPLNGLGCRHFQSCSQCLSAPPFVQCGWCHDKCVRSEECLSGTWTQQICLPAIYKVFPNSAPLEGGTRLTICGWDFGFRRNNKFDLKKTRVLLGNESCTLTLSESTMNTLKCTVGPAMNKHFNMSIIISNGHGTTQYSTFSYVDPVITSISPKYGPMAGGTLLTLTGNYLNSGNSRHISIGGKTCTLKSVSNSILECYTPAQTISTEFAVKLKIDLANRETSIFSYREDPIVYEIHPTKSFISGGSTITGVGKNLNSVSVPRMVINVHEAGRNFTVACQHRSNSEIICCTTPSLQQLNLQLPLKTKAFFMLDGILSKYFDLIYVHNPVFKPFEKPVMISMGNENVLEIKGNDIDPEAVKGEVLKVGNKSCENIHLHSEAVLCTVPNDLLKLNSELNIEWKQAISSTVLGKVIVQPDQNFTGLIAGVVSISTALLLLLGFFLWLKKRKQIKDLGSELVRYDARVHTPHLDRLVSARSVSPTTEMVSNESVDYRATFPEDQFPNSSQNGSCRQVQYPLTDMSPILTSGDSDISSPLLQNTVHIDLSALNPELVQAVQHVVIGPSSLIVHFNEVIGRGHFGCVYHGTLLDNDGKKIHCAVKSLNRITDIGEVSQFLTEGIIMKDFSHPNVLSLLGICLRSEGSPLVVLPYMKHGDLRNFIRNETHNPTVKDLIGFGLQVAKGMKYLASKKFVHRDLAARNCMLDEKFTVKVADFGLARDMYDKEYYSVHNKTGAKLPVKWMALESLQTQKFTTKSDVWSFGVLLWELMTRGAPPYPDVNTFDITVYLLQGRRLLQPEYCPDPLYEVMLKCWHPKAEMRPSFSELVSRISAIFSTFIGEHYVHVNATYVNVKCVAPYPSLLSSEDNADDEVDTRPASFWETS

cell scattering score, HPAF-II, 0.001 nM [1]: 0 score 0-4
cell scattering score, HPAF-II, 0.004 nM [1]: 1 score 0-4
cell scattering score, HPAF-II, 0.012 nM [1]: 2 score 0-4
cell scattering score, HPAF-II, 0.037 nM [1]: 3 score 0-4
cell scattering score, HPAF-II, 0.111 nM [1]: 4 score 0-4
cell scattering score, HPAF-II, 0.333 nM [1]: 4 score 0-4
cell scattering score, HPAF-II, 1.000 nM [1]: 4 score 0-4
cell scattering score, HPAF-II, 3.000 nM [1]: 4 score 0-4
cell scattering score, HPAF-II, 9.000 nM [1]: 4 score 0-4
B1: recombinant human HGF (R&D Systems) (ligand)
chain: not shown
modifications: biotinylated at the N-terminus using NHS-LC-biotin in the competition ELISA only
protection from staurosporine, viability EC50, MCF10A [2]: 4.57 nM
protection from staurosporine, viability EMAX, MCF10A [2]: 59.3%
